# Test results published in the supplement of paper PMC8047034.
# Structures can show the parent of a compound that is named as a salt. This is one part of the list. Most values come without repeats; read them as rough.
# Columns and labels:
# OVCAR4 = assay: log2 surviving fraction (library drug vs vehicle, or drug + carboplatin vs carboplatin alone; relative to plate median); ovarian cancer lines: OVCAR4 is platinum-sensitive and Ov4Carbo platinum-resistant; higher = more cell survival; settings: library drug concentration 10 µM, 7 days
# Ov4Carbo = assay: as above; settings: library drug concentration 10 µM, 7 days
Compound,log2 surviving fraction (OVCAR4; carboplatin co-treatment 0 µM),log2 surviving fraction (OVCAR4; carboplatin co-treatment 5 µM),log2 surviving fraction (Ov4Carbo; carboplatin co-treatment 0 µM),log2 surviving fraction (Ov4Carbo; carboplatin co-treatment 5 µM)
Cc1ccc(S(=O)(=O)NC(=O)NN2CC3CCCC3C2)cc1 (stereo not given) [Gliclazide (Diamicron)],-0.282,0.0783,0.768,0.573
CC(C)NCC(O)c1ccccc1Cl (stereo not given) [Clorprenaline HCL],0.231,0.191,0.478,1.08
Clc1ccc(C(Cn2ccnc2)OCc2ccsc2Cl)c(Cl)c1 (stereo not given) [Tioconazole],-1.62,-0.322,-1.63,-2.69
CCC1=C[C@H]2CN3CCc4c([nH]c5ccccc45)[C@](C(=O)OC)(C2)[C@H]13 [Catharanthine],-1.51,-1.27,-0.432,0.141
O=C(O)CCc1nc2ccccc2[nH]1 [Procodazole],-0.658,-0.87,-0.535,0.64
CCC(=O)OCC(=O)[C@@]1(OC(=O)CC)[C@@H](C)C[C@H]2[C@@H]3CCC4=CC(=O)C=C[C@]4(C)[C@@]3(Cl)[C@@H](O)C[C@@]21C [Beclomethasone dipropionate],0.00216,-1.12,0.41,1.08
CN(N=O)C(=O)N[C@@H](C=O)[C@@H](O)[C@H](O)[C@H](O)CO [Streptozotocin (Zanosar)],-0.757,1.11,0.457,0.322
Cc1ccc(C(=O)C(C)CN2CCCCC2)cc1 (stereo not given) [Tolperisone HCl],0.6,-0.249,0.191,-1.98
CNC[C@H](O)c1cccc(O)c1 [Phenylephrine HCl],0.0495,0.367,1.51,0.816
Nc1ncn([C@@H]2O[C@H](CO)[C@@H](O)[C@H]2O)c(=O)n1 [Azacitidine (Vidaza)],-5.74,-3.04,-2.74,-1.14
